# Source: the supplement of paper PMC3334620
# Whole data set: some 33,000 sequences, median “E-score (-0.5 to 0.5)” near -0.054, cut for the highest 2% near 0.35. The list shows a part of the results.
# Target: T1, Stb5 (UniProt P38699)
# T1 sequence: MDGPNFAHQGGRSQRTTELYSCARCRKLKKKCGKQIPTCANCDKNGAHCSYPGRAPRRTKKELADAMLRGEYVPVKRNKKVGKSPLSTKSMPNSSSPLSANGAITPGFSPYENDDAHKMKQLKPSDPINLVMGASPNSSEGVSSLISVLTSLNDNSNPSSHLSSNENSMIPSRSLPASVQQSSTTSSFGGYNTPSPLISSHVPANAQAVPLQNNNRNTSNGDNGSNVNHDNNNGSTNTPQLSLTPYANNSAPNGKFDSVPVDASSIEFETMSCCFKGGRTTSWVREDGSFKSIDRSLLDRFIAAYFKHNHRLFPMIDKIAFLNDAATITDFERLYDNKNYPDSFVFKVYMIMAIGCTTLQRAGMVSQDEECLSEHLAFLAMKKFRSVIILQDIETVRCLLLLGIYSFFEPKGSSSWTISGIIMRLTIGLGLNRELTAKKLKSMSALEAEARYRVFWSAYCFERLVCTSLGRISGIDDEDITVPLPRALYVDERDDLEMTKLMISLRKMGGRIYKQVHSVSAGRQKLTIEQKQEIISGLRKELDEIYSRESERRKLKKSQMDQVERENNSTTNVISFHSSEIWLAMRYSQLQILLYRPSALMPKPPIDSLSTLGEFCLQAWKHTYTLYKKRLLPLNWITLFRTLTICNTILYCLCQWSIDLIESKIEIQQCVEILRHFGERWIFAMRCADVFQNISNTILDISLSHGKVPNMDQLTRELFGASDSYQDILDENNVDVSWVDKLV
# Experiment: PBM E-score (8-mer binding enrichment) (E-score (-0.5 to 0.5)); higher = stronger / more preferred TF binding; most listed sequences are background and not binding sites
# Details: protein concentration: 200 nM; construct: GST-full length
# Experimental: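 Universal 'all 10-mer' protein binding microarrays (Agilent AMADID 015681) probed with GST-tagged S. cerevisiae TFs (full-length or DBD) made by in vitro transcription/translation (PURExpress), about 100-200 nM. Bound TF was detected with fluorescent anti-GST. Each ungapped 8-mer (which stands for itself and its reverse complement) is scored by the PBM enrichment score (E-score), a modified Wilcoxon-Mann-Whitney statistic from -0.5 to +0.5, computed with the Universal PBM Analysis Suite. Scale: above 0.35 generally sequence-specific binding.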
row,Sequence,PBM E-score
1,ACTACTCG,0.00137
2,GGATGAAA,0.0362
3,CTTCTAGC,0.0248
4,CATGGAAC,-0.196
5,CTCAAGAA,-0.119
6,CCACTGCC,-0.142
7,CGAGGCAA,-0.086
8,CGAATAAA,-0.0452
9,TCACTCGA,-0.204
10,ATCGGTAA,0.277
11,AGGCACAG,-0.302
12,AGCCTTGA,-0.203
13,CACGGGCG,0.0573
14,CTAGGGTC,-0.203
15,CAGACACA,-0.0304
16,AGTTGCTA,-0.0374
17,CTGAGGCC,0.133
18,TGCTAGAA,-0.0141
19,GTCTCCTA,-0.14
20,ATTAACTG,-0.0295
21,GATCGGAA,0.133
22,GATAATGC,0.0588
23,GAATAAGC,0.0338
24,ACAAAGAA,-0.00751
25,AATCAGCT,-0.203

row,Sequence,PBM E-score
1,CAAACCCC,0.336
2,CGTGACGC,-0.0945
3,AACAGCGT,0.129
4,CACCCCAC,0.0573
5,AGTGTTGG,-0.188
6,TAGGAAGA,-0.242
7,CGTTGTTA,0.191
8,GAGGCGCC,-0.049
9,CAACTACG,-0.0121
10,CGAGTACG,-0.0874
11,CGCTGGGA,-0.0625
12,AAATATCG,0.151
13,TCTGTAAA,-0.0125
14,ACCAAGGT,0.0176
15,ACCATCCT,-0.215
16,GCTGGCCA,-0.165
17,ACAGACAA,-0.131
18,CCTACTTA,-0.16
19,AGACGGGC,0.248
20,AAGTCTCT,-0.338
21,GAGCTCAC,-0.108
22,CAATGTGA,-0.186
23,ATCTACAG,-0.128
24,TATGCGGA,0.182
25,ACGGATTC,0.139

row,Sequence,PBM E-score
1,CGCACGCA,0.0766
2,AGCTCGGA,-0.0221
3,CAGGGACA,-0.216
4,GTATTTCA,-0.0614
5,AGTGTAGA,-0.248
6,TACCCCTA,-0.156
7,CGCAAGCG,-0.00054
8,GGTCGGAC,0.369
9,AGCCGTTC,0.0213
10,TAGATCTA,0.0243
11,ATATCAAA,0.0172
12,CTGCATTC,-0.386
13,AAGTCGTC,-0.139
14,CAACACAC,-0.151
15,GACAGAGC,-0.0684
16,AGGGAAAA,0.0254
17,AAAAAGGG,-0.145
18,AGAGGGTC,-0.139
19,AACTGGGA,-0.197
20,GCTACCCA,-0.0864
21,ATAAGCCC,0.406
22,GGATACGA,-0.106
23,ATATACGG,0.0992
24,CCCCAAAA,-0.116
25,CCTAATAA,-0.0384

row,Sequence,PBM E-score
1,CTTCGTAA,-0.185
2,CATCTAGG,-0.139
3,ATGATAAA,0.0679
4,CCTCAGGA,-0.265
5,CCTTCTGA,-0.193
6,ATCTAGAA,-0.13
7,ACTCTTTC,-0.0355
8,GCTCGCAA,-0.294
9,AAAACCCA,-0.0369
10,ACTGGGTG,-0.289
11,ACTCGATG,-0.179
12,CGCAGGGA,-0.14
13,CAGGCCTG,-0.172
14,AGACCGAA,0.236
15,GAATAGAA,-0.13
16,CTGCTAAG,-0.102
17,GATATCGC,0.025
18,ACGCATGG,-0.139
19,ACGTACGG,0.0813
20,GTGGGTCA,-0.168
21,AAGGCATA,-0.31
22,AAGGCAGT,-0.286
23,AAGCCGTA,-0.0329
24,CACCTGTA,-0.208
25,GGAGGCAC,0.113

row,Sequence,PBM E-score
1,ACTTACCG,0.195
2,ATACAAAG,0.0452
3,ACACAACG,-0.0277
4,AATCATTC,-0.155
5,ATCGGTGC,0.324
6,AACTCGCC,-0.191
7,ACTAGACC,0.0765
8,CGAGGGCA,-0.123
9,GCACACGA,-0.203
10,ATCGCTAA,-0.0771
11,GCTCTGTA,-0.13
12,AGTAAAAA,-0.039
13,ATCTCCTC,-0.0121
14,CTACGCTC,-0.0412
15,AGTAGGGA,-0.175
16,ACGGGGGG,0.0225
17,AATATTCC,0.14
18,ACCACCGT,0.354
19,AATGAACC,-0.0171
20,CGGCGCAC,0.24
21,CCGAATGA,0.172
22,AGCCTCAC,-0.269
23,GCGCCCCC,-0.0157
24,CCGTCGAG,0.23
25,ATTTTGCG,-0.0255

row,Sequence,PBM E-score
1,AAATAATT,0.0628
2,AAGGGTTA,-0.109
3,ATACGTTC,-0.11
4,CAAATCGA,-0.301
5,ACTCTATC,-0.0905
6,GGTGCTTA,0.233
7,ACCCGGCA,0.2
8,GACGCCGC,0.406
9,CAACAAAG,-0.134
10,CCGCAATA,0.245
11,GATACGAA,-0.192
12,ACAGTACG,-0.197
13,ATGCGCAT,-0.133
14,ATCGGGCG,0.186
15,CGATGAGC,-0.031
16,AATAGTAC,-0.0709
17,CGTACGAG,-0.0856
18,CGTTTGAA,0.024
19,AAGGTGGC,-0.235
20,CTATGAAG,-0.0616
21,GCGTGAAC,-0.0471
22,ACAGGCTC,-0.0716
23,ATTGCTAG,-0.201
24,GGAGCTCA,-0.064
25,GGGGTAAC,0.177

row,Sequence,PBM E-score
1,CGGTTCAA,0.178
2,AGCGTGGA,-0.0775
3,GCCAGGGA,-0.224
4,ATCACAAA,-0.101
5,CCGTTAAA,0.155
6,AGTCCTTA,-0.262
7,CTCAGAAC,-0.191
8,CACAGCCG,0.0932
9,AACATCGA,-0.0388
10,AGAAGTCA,-0.161
11,ATACTGTC,-0.134
12,CTCCTGCA,-0.176
13,AGGCGCGC,0.0846
14,ATGTTTAA,-0.149
15,AGAGAACG,-0.224
16,CGGCTACG,0.115
17,ACAAAGGG,-0.117
18,GAGTCTAA,-0.1
19,CGACAGAA,0.0516
20,CGTGTTAA,-0.191
21,GGCACACA,-0.0391
22,CATCCGAG,-0.0144
